{"source": "ChEMBL document CHEMBL1157539", "about": "“Thousands of chemical starting points for antimalarial lead identification” (Nature, 2010)", "note": "The full ranking holds about 13,000 compounds; the median of “IFI” is about 4, and the highest 2% start at about 17. The list shows a part of the results."}
{"assay": "GSK_TCMDC: Inhibition Frequency Index (IFI). The number of non-kinase HTS assays where a compound showed > 50 % inhibition, expressed as a percentage of the number of such assays in which the compound was tested (-0 is zero)", "type": "functional", "units": {"IFI": "%"}}
{"compound": "C=C(C)C1CC=C(CN2CCCC(n3ccc4cc(NC(=O)c5ccco5)ccc43)CC2)CC1", "note": "(centres undefined)", "IFI": 9.38}
{"compound": "O=C(Nc1nc2cc(S(=O)(=O)NCc3ccc(Cl)c(Cl)c3)ccc2n1CCCn1ccnc1)c1ccc(Cl)cc1", "IFI": 1.42}
{"compound": "O=C(CCN1CCCCC1)Nc1ccc(Nc2nccc(NCC(O)c3ccccc3)n2)cc1", "note": "(centres undefined)", "IFI": 1.03}
{"compound": "CCNc1cc(C(=O)N[C@@H](Cc2ccccc2)[C@H](O)CNC2(CC)CCCCC2)cc(N2CCCCS2(=O)=O)c1", "IFI": 3.01}
{"compound": "CN(CCC(CCN1CCC(c2c[nH]c3ccccc23)CC1)c1ccccc1)C(=O)Nc1ccc(Cl)c(Cl)c1", "note": "(centres undefined)", "IFI": 10.7}
{"compound": "COc1ccc2ncc(F)c([C@H](O)CN3CCC(NCc4ccc5c(c4)OCCO5)CC3)c2c1", "IFI": 2.24}
{"compound": "Cc1nc2nc(N)nc(N)c2c(C)c1Cc1c(Cl)cccc1Cl", "IFI": 4.44}
{"compound": "Cc1cc(O)c(CN(C)Cc2ccc(N(C)C)cc2)cc1C(C)C", "IFI": 0}
{"compound": "CC1(C)NC(N)=NC(=N)N1OCC1CCCCC1", "IFI": 2.21}
{"compound": "CCn1cc2c3c(cc(C(=O)N[C@@H](Cc4ccccc4)[C@H](O)CNCc4cccc(OC)c4)cc31)N(C)S(=O)(=O)CC2", "IFI": 4.35}
{"compound": "CCOc1ncccc1CN1CCC(N2CCc3cc(NC(=O)c4ccco4)ccc32)C1", "note": "(centres undefined)", "IFI": -0}
{"compound": "Cc1cc(NC(=O)c2ccco2)ccc1OC1CCN(Cc2ccc(F)cc2)C1", "note": "(centres undefined)", "IFI": 1.64}
{"compound": "CC(C)C[C@H](NC(=O)c1ccc(OCCN2CCOCC2)cc1)C(=O)N[C@H](/C=N/NC(=O)c1ccccc1)CCc1ccccc1", "IFI": 9.09}
{"compound": "CC1CCN(CC[C@H]2CCCN2S(=O)(=O)c2cccc(NC(=O)c3ccc(-c4ccc(Cl)cc4)o3)c2)CC1", "IFI": 9.86}
{"compound": "COc1ccc(-c2cc(C(=O)Nc3ccc(CCCN(C)Cc4ccc(OC)c(OC)c4)cc3)c3ccccc3n2)cc1", "IFI": 7.86}
{"compound": "CC(C)(C)OC(=O)[C@H](CC(N)=O)NC(=O)c1ccc(-c2ccc(-c3nc4cc(C(F)(F)F)ccc4[nH]3)s2)cc1", "IFI": 5.66}
{"compound": "Cc1nc(-c2cccc(C(=O)NC3CCC(CCN4CCc5ccc(-c6cccnc6)cc5CC4)CC3)c2)no1", "note": "(centres undefined)", "IFI": 4.35}
{"compound": "Cc1cccc2nc(-c3ccc(-c4ccc(C(=O)NCCN5CCCC5)cc4)cc3)[nH]c12", "IFI": 5.36}
{"compound": "CCCCCCn1c(Sc2ccc(C#N)c([N+](=O)[O-])c2)nnc1-c1cccs1", "IFI": 5.71}
{"compound": "Cc1cc(Nc2ccc(O)cc2)nc2cccc(O)c12", "IFI": 7.77}
{"compound": "N#Cc1ccc(-c2ccc(C(=O)NCCCCN3CCC(c4cc(Br)c5c(c4O)CCCC5)CC3)cc2)cc1", "IFI": 11.4}
{"compound": "CCc1ccc(NC(=O)N(CCCN2CCN(C)CC2)Cc2csc(-c3ccc(CNCc4ccccc4)cc3)n2)cc1", "IFI": 8.97}
{"compound": "COc1ccc2ncc(Cl)c(CCN3C[C@H](CNCc4ccc5c(n4)NC(=O)CS5)[C@H](O)C3)c2n1", "IFI": 4.76}
{"compound": "Cc1cc(N[C@@H](Cc2ccccc2)C(=O)NCc2cccc(F)c2)nc(NCCc2ccccc2)n1", "IFI": 9.3}
{"compound": "CC1CCC(C[C@@H](C(=O)N[C@@H](CCC(=O)N2CCCCC2)C(=O)Nc2nccs2)[C@H](C(C)C)N(O)C=O)CC1", "note": "(some centres undefined)", "IFI": 2.22}
{"compound": "c1cc(-c2ccc(CNCc3ccc(-c4csnn4)cc3)cc2)cc(-c2nc3ccccc3[nH]2)c1", "IFI": 11.4}
{"compound": "CCOc1cc(CC)ccc1C1CCN(CCN2CCC(NC(=O)c3ccc(-c4ccc(C(C)=O)cc4)cc3)CC2)CC1", "IFI": 1.83}
{"compound": "Cc1cccc2c(/C=C/C(=O)NC3CCC(CCN4CCc5ccc(C#N)cc5CC4)CC3)c[nH]c12", "note": "(centres undefined)", "IFI": 1.52}
{"compound": "Cc1cccc2nc(-c3ccc(-c4ccc(NC(=O)Nc5ccc(Cl)cc5)cc4)s3)[nH]c12", "IFI": 5.94}
{"compound": "Brc1cc(Br)c2c(c1)C(NCCCNC1CCNc3c(Br)cc(Br)cc31)CCN2", "note": "(centres undefined)", "IFI": 3.5}
{"compound": "O=c1cc(NCCCNCc2cn(S(=O)(=O)c3ccccc3)c3ccccc23)[nH]c2ccccc12", "IFI": 5.88}
{"compound": "CCc1cn2c3c(cc(C(=O)N[C@@H](Cc4ccccc4)[C@H](O)CNCc4ccc(C)cc4)cc13)N(C)S(=O)(=O)CC2", "IFI": 2.92}
{"compound": "CC1CCCN(c2ccc(NC(=O)c3cccs3)cc2[N+](=O)[O-])C1", "note": "(centres undefined)", "IFI": 11.9}
{"compound": "c1cc(CN2CCCCC2)cc(-c2ccc(-c3nc4ccccc4[nH]3)s2)c1", "IFI": 2.86}
{"compound": "COc1ccc(CNC2CCN(C)CC2)cc1-c1ccc(S(=O)(=O)NCc2cccnc2)s1", "IFI": -0}
{"compound": "CCCC(CNCc1ccc(Cl)c(C(F)(F)F)c1)CNc1nc2cnccc2[nH]1", "note": "(centres undefined)", "IFI": 2.88}
{"compound": "COc1ccc2ncc(C#N)c(CCN3C4CCC3CC(NCc3ccc5c(n3)NC(=O)CS5)C4)c2c1", "note": "(centres undefined)", "IFI": 3.62}
{"compound": "Oc1cc2c(cc1CN1CCN(Cc3cccs3)CC1)CCC2", "IFI": 5.88}
{"compound": "O=C(c1ccccc1NN=C1C(=O)N(c2ccccc2)N=C1c1ccccc1)N1CCOCC1", "IFI": 2.11}
{"compound": "Cc1ccc(CNC(=O)[C@H](Cc2ccccc2)Nc2cc(C)nc(NCC3CCCCC3)n2)cc1", "IFI": 24.3}
{"compound": "Cc1cccc2nc(-c3ccc(-c4cccc(NC(=O)COc5ccccc5C(N)=O)c4)s3)[nH]c12", "IFI": 12.2}
{"compound": "O=C(NC1CCCc2ccccc21)C1CCCN(C(=O)c2ccc(O)c(-c3ccc(Cl)c(Cl)c3)c2)C1", "note": "(centres undefined)", "IFI": 0.76}
{"compound": "NCC1(c2nc(-c3ccc(Cl)c(O)c3)c(-c3ccncc3)[nH]2)CCCCC1", "IFI": 3.55}
{"compound": "CC(C)Cc1nc2nc(N)nc(N)c2cc1C(C)C", "IFI": 2.82}
{"compound": "Cn1c(Nc2cc(C(C)(C)C)on2)nc2cc(Nc3ccnc(Nc4ccc(CS(C)(=O)=O)cc4)n3)ccc21", "IFI": 0.95}
{"compound": "Cc1ccc(NC(=O)C(C)Sc2nnc(-c3ccccc3Br)[nH]2)cc1", "note": "(centres undefined)", "IFI": 3.85}
{"compound": "O=C(CSc1nnc(O)n1Cc1ccccc1)Nc1ccccc1-c1ccccc1", "IFI": 0.76}
{"compound": "COc1ccc(-c2nc(NC(=O)Cc3ccc(OC)c(OC)c3)sc2C)cc1", "IFI": 10.4}
{"compound": "CC(C)(C)c1ccc2[nH]c(-c3ccc(/C=C/C(=O)NCc4cccc(C(F)(F)F)c4)cc3)nc2c1", "IFI": 2.9}
{"compound": "CN(C)CCNCc1ccc(-c2ccc3c(Nc4ccc(F)cc4Cl)ccnc3c2)o1", "IFI": 9.86}
{"compound": "CCc1ccccc1-c1csc(C(=O)NCC2CCN(Cc3ccc(C(C)(C)C)cc3)C2)c1", "note": "(centres undefined)", "IFI": 16.7}
{"compound": "COc1cccc(C2CCN(CCN3CCC(CNC(=O)c4ccc(-c5ccc(C(F)(F)F)cc5)cc4)CC3)CC2)c1", "IFI": 8.77}
{"compound": "COc1ccc2nccc(NC(=O)C3(O)CCC(NCc4ccc5c(c4)NCCS5)CC3)c2n1", "note": "(centres undefined)", "IFI": 6.77}
{"compound": "COc1cc(NCCCNCc2cn(S(=O)(=O)c3ccccc3)c3ccccc23)nc2ccccc12", "IFI": 8.96}
